Our source for the activity change, negative = inhibition values is PubChem BioAssay AID1745853 (National Center for Advancing Translational Sciences (NCATS), 2022).

Holding throughout (test): Primary Screen for Target Class Profiling of Small Molecule Inhibitors of Methyltransferases
The target in test [1] is Glycine N-methyltransferase (Homo sapiens) (UniProt Q14749). Particulars: purified enzyme, MTase-Glo SAH luminescence; measured here: GNMT inhibition; at 40 µM; stronger effect = lower value. A digest of the protocol: (§1)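 Each enzyme was reacted with SAM and its substrate, with compounds tested once at 40 uM; SAH formed was read by MTase-Glo luminescence.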
Test [2] addresses Guanidinoacetate N-methyltransferase (Homo sapiens) (UniProt Q14353). The note with it: purified enzyme, MTase-Glo SAH luminescence; measured here: GAMT inhibition; at 40 µM; stronger effect = lower value. A digest of the protocol: as §1
For test [3], the target named is Histamine N-methyltransferase (Homo sapiens) (UniProt P50135). The note with it: purified enzyme, MTase-Glo SAH luminescence; measured here: HNMT inhibition; at 40 µM; stronger effect = lower value. An outline of the steps:
as §1

Test [4] concerns the target Nicotinamide N-methyltransferase (Homo sapiens) (UniProt P40261). Particulars: purified enzyme, MTase-Glo SAH luminescence; measured here: NNMT inhibition; at 40 µM; stronger effect = lower value. An outline of the steps: as §1
Test [5] concerns the target Phenylethanolamine N-methyltransferase (Homo sapiens) (UniProt P11086). The note with it: purified enzyme, MTase-Glo SAH luminescence; measured here: PNMT inhibition; at 40 µM; stronger effect = lower value. An outline of the steps:
as §1

This is one part of the list. Further columns of the screen follow, without active or inactive calls.
% is scaled to controls: 0 for no effect and ±100 for the full control effect.

Take `CC(C)c1ccc(CN2CC(CNC(=O)c3cnn(C)c3)C3(C2)CN(c2ccccc2)C3)cc1` (centres undefined): the activity change, negative = inhibition is -6.59% in test [1]; -3.75% in test [2]; -1.23% in test [3]; -12% in test [4]; -6.63% in test [5].
With `C[S+](=O)([O-])N1CC2(CCCCN2Cc2ccc(Cl)cc2)Cc2ccccc21` (centres undefined), the activity change, negative = inhibition in test [1] is 0.873%; in test [2], -6.51%; in test [3], 0.233%; in test [4], -1.06%; in test [5], -2.06%.
The corresponding values for `COc1ccc(C(=O)N2CCC23Cc2ccccc2NC3=O)cc1` (centres undefined) are -0.811%, -0.442%, 2%, -1.35% and -1.88%.
On to `CC1(C(=O)NC2CCCCC2)Cn2c(c(-n3cccc3)c3ccccc32)C(=O)N1Cc1cccnc1` (centres undefined), for which the activity change, negative = inhibition in test [1] is 0.805%; in test [2] it was 0%; in test [3], 3.91%; in test [4] it was -4.96%; in test [5] it was 1.31%.
For the compound `CNCc1cn(C[C@H]2O[C@@H](CC(=O)NCc3ccc(F)cc3)[C@H](O)[C@@H]2O)nn1`, the activity change, negative = inhibition is -7.77% in test [1]; -8.85% in test [2]; -4.93% in test [3]; -11.7% in test [4]; -9.47% in test [5].
Taken in the same sequence, the figures for `COCCC1(NS(=O)(=O)N(C)C)CCN(S(C)(=O)=O)CC1` were -1.79%, 0.653%, 0.894%, -1.44% and -0.981%.
On to `Cc1cc(C)cc(N2C(=O)c3cc4ccccc4n3CC2(C)C(=O)NCCC(C)C)c1` (centres undefined), for which the activity change, negative = inhibition in test [1] is 2.67%; in test [2], 0.769%; in test [3], 5.07%; in test [4], 0.913%; in test [5], 0.612%.
On to `CCNC(=O)NC1(CCOC)CCN(C(=O)c2ccoc2)CC1`, for which the activity change, negative = inhibition in test [1] is -4.79%; in test [2], -7.57%; in test [3] it was -1.41%; in test [4] it was -11.5%; in test [5], -1.85%.
With `Cc1ccsc1CN1CCC2(CC1)Cc1ccccc1CNC2=O`, the activity change, negative = inhibition in test [1] is -8.53%; in test [2], -9.41%; in test [3] it was -4.19%; in test [4], -13.3%; in test [5], -3.24%.
`CCOC(=O)C(Cc1c[nH]c2ccccc12)NC(=O)c1ccccc1Br` (centres undefined): the activity change, negative = inhibition in test [1] was -1.76%; in test [2], 0%; in test [3], 9.23%; in test [4], 8.54%; in test [5], 2.76%.
For `CC1(C(=O)NC2CCCC2)COc2c(oc3ccccc23)C(=O)N1Cc1cccc(Br)c1` (centres undefined), the activity change, negative = inhibition in test [1] was 2.71%; in test [2], 0.941%; in test [3], 6.38%; in test [4] it was 4.19%; in test [5] it was 4.66%.
As to `COc1ccccc1C(=O)N1CCCCCC1CN1CCc2ccccc2C1` (centres undefined), the activity change, negative = inhibition in test [1] is -15%; in test [2] it was -10.1%; in test [3], -13.6%; in test [4], -5.16%; in test [5] it was -14.6%.
On to `C[C@H]1CC(=O)Nc2cccc(-c3cnn(C(C)(C)C)c3)c2N1`, for which the activity change, negative = inhibition was -2.11% in test [1]; -1.77% in test [2]; 7.48% in test [3]; -12.4% in test [4]; 2.54% in test [5].
`Cc1ccc(-c2cccc(CN3CCCC(c4nc5ccc(C)cc5c(=O)[nH]4)C3)c2)c(C)c1` (centres undefined): the activity change, negative = inhibition is -4.98% in test [1]; -6.31% in test [2]; -6.52% in test [3]; -13.5% in test [4]; -7.15% in test [5].
Taken in the same sequence, the figures for `C=C1C(=O)O[C@@H]2[C@H]1[C@H](O)C[C@]1(C)[C@@H](O)CC=C(C)[C@@H]21` were 7.06%, 5.63%, 11.3%, -4.85% and 8.65%.
As to `COC(=O)c1ncn2c1C(=O)N(Cc1ccc(C)cc1)C(C)(C(=O)NCCCOC(C)C)C2` (centres undefined), the activity change, negative = inhibition in test [1] was -5.71%; in test [2], 0%; in test [3], 5.39%; in test [4], 2.83%; in test [5], 3.26%.
Turning to `CCCn1c(=O)c2ccc(C(=O)NC(C)CC)cc2n2c(=O)n(CC(=O)N(C)c3ccccc3)nc12` (centres undefined), the activity change, negative = inhibition in test [1] was 2.49%; in test [2], 3.9%; in test [3] it was 7.54%; in test [4], -0.73%; in test [5], 3.14%.
`Cc1ccccc1Cn1nc2n(CC(C)C)c(=O)c3ccc(C(=O)NC(C)C)cc3n2c1=O`: the activity change, negative = inhibition was 1.28% in test [1]; -1.23% in test [2]; 1.84% in test [3]; -3.06% in test [4]; -1.44% in test [5].
Consider `CC[C@@H]1Cc2cc(O)ccc2C2=C1c1ccc(O)cc1C[C@H]2CC`, for which the activity change, negative = inhibition in test [1] is -38.3%; in test [2], -21.4%; in test [3] it was -39.6%; in test [4] it was -22.2%; in test [5], -18.8%.
As for `CCc1ccc(-c2cc3n(n2)CC(C)(C(=O)NC2CCCCC2)N(Cc2ccccc2)C3=O)cc1` (centres undefined), the activity change, negative = inhibition came out at 5.6% in test [1]; 3.97% in test [2]; 5.39% in test [3]; 8.1% in test [4]; 0.819% in test [5].
In the case of `CC(=O)O[C@H]1[C@H](Oc2ccccc2COC(=O)C2(O)C=CCCC2=O)O[C@H](CO)[C@@H](O)[C@@H]1O` (some centres undefined), the activity change, negative = inhibition in test [1] is 4.21%; in test [2] it was 4.08%; in test [3], 4.34%; in test [4], -8.18%; in test [5], 0.072%.
Turning to `CCOC(=O)c1cc2n(n1)CC(C)(C(=O)NCCCOC)N(c1cc(C)cc(C)c1)C2=O` (centres undefined), the activity change, negative = inhibition in test [1] is 5.77%; in test [2], 0%; in test [3], 6.5%; in test [4], 5.35%; in test [5] it was 4.66%.
Taken in the same sequence, the figures for `Nc1ncnc2c1ncn2[C@@H]1O[C@H](CO)C[C@H]1O` were 17.4%, 17.1%, 14.3%, 13.8% and 4.37%.
For the compound `CC(C)(C)OC(=O)Nc1ccc(-c2cc(C(=O)NCCCCCCC(=O)NO)no2)cc1`, the activity change, negative = inhibition in test [1] is -12.5%; in test [3], -0.018%; in test [4], 5.85%; in test [5], 20.4%.
For `COc1ccc(CN2C[C@H]3CN(S(=O)(=O)c4ccc(C)cc4)CCN3C2=O)cc1`, the activity change, negative = inhibition is -11.5% in test [1]; -8.38% in test [2]; -6.58% in test [3]; -21.9% in test [4]; -12.8% in test [5].
Regarding `NCCc1cccc(CN2CCCC(CO)(CC3CC3)C2)c1` (centres undefined), the activity change, negative = inhibition in test [1] is -10.9%; in test [2] it was -8.06%; in test [3], -15.2%; in test [4] it was -14.7%; in test [5] it was -16.8%.
On to `CC(C)CCN1CCC(O)(c2csc(CN(C)Cc3cccnc3)n2)CC1`, for which the activity change, negative = inhibition in test [1] is -6.53%; in test [2], -4.64%; in test [3], -7.28%; in test [4] it was -7.55%; in test [5] it was 5.77%.
As to `CCOC(=O)Cc1ccc(NC(=O)N2Cc3c(sc4c3CCCC4)-n3cccc3C2c2ccccc2)cc1` (centres undefined), the activity change, negative = inhibition in test [1] was -1.38%; in test [2], 1.99%; in test [3], 1.67%; in test [4], -1.68%; in test [5] it was 2.51%.
Turning to `CC1c2cccn2CCN1C(=O)Nc1ccc(Br)cc1` (centres undefined), the activity change, negative = inhibition is -8.45% in test [1]; 3.95% in test [2]; -7.49% in test [3]; -6.55% in test [4]; -2.76% in test [5].
For `CC1CC(C)CN(S(=O)(=O)c2ccc3c(c2)oc(=O)n3CC(=O)N2CCN(C)CC2)C1` (centres undefined), the activity change, negative = inhibition in test [1] is -6.83%; in test [2] it was -0.609%; in test [3], -4.49%; in test [4] it was 1.07%; in test [5], -6.47%.
